Earlier results on eight molecules are cited in patent publication US20170096636A1, “METHODS AND COMPOUNDS FOR PHOTOTHERAPY WITH CHALCOGENORHODAMINE PHOTOSENSITIZERS” (Wake Forest University Health Sciences, priority 2014, published 2017).

For this series, the system named is MDCK-MDR1 cells. The conditions noted are these: cited from earlier work; for PBA: transport in secretory direction (basolateral to apical).
[1] abbreviates: MDCK-MDR1 cells, thiorhodamine-treated and fully inhibited systems.

Read-outs that look alike come from different tables or passages of the source.

`CN1CCC(C)(C)c2cc3c(-c4ccc(C(=S)N5CCCCC5)s4)c4ccc(=[N+](C)C)cc-4sc3cc21.F[P-](F)(F)(F)(F)F` [1-S—PF6]: under setting [1], the “Ratio (+/−inhibitor) % Cell Associated Photosensitizer” value is given as 1.8. Also, under “MDCK-MDR1 cells”, the PBA is 3.4 ×10⁻⁶ cm/s. Regarding `CN1CCC(C)(C)c2cc3c(-c4ccc(C(=O)N5CCCCC5)s4)c4ccc(=[N+](C)C)cc-4sc3cc21.F[P-](F)(F)(F)(F)F` [2-S—PF6], the “Ratio (+/−inhibitor) % Cell Associated Photosensitizer” value under setting [1] is given as 5.2. Further, the PBA (MDCK-MDR1 cells) is 23 ×10⁻⁶ cm/s. Turning to `CCN(CC)C(=S)c1ccc(-c2c3ccc(=[N+](C)C)cc-3sc3cc4c(cc23)C(C)(C)CCN4C)s1.F[P-](F)(F)(F)(F)F` [3-S—PF6], the “Ratio (+/−inhibitor) % Cell Associated Photosensitizer” value under setting [1] is on record as 1.2. The PBA (MDCK-MDR1 cells) was 6.9 ×10⁻⁶ cm/s. For `CCN(CC)C(=O)c1ccc(-c2c3ccc(=[N+](C)C)cc-3sc3cc4c(cc23)C(C)(C)CCN4C)s1.F[P-](F)(F)(F)(F)F` [4-S—PF6], the “Ratio (+/−inhibitor) % Cell Associated Photosensitizer” value under setting [1] is recorded as 3.3. Moreover, for the setting “MDCK-MDR1 cells”, the PBA was 37 ×10⁻⁶ cm/s. `CN(C)c1ccc2c(-c3ccc(C(=S)N4CCCCC4)s3)c3cc4c5c(c3[s+]c2c1)CCCN5CCC4.F[P-](F)(F)(F)(F)F` [5-S—PF6]: the “Ratio (+/−inhibitor) % Cell Associated Photosensitizer” value under setting [1] is given as 2.1. Where the note is “MDCK-MDR1 cells”, the PBA is 8.3 ×10⁻⁶ cm/s. On to `CN(C)c1ccc2c(-c3ccc(C(=O)N4CCCCC4)s3)c3cc4c5c(c3[s+]c2c1)CCCN5CCC4.F[P-](F)(F)(F)(F)F` [6-S—PF6], for which the “Ratio (+/−inhibitor) % Cell Associated Photosensitizer” value under setting [1] is recorded as 6.1. In addition, for the setting “MDCK-MDR1 cells”, the PBA was 22 ×10⁻⁶ cm/s.

Regarding `CCN(CC)C(=S)c1ccc(-c2c3ccc(N(C)C)cc3[s+]c3c4c5c(cc23)CCCN5CCC4)s1.F[P-](F)(F)(F)(F)F` [7-S—PF6], the “Ratio (+/−inhibitor) % Cell Associated Photosensitizer” value under setting [1] is 1.8. Moreover, under “MDCK-MDR1 cells”, the PBA is 6.5 ×10⁻⁶ cm/s.

As for `CCN(CC)C(=O)c1ccc(-c2c3ccc(N(C)C)cc3[s+]c3c4c5c(cc23)CCCN5CCC4)s1.F[P-](F)(F)(F)(F)F` [8-S—PF6], the “Ratio (+/−inhibitor) % Cell Associated Photosensitizer” value is given as 4.8.
